Results reported in article PMC13083723 (Patterns, 2026).
Hit rate of the full screen: of about 5,400 compounds, about 190 (3.5%) showed an effect of 50% or more. The list shows a part of the results.

System: Vero-E6
Assay: primary screen, phospholipidosis by LipidTOX staining; higher = more effect of the substance
Conditions: 10 µM
How it was run: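 Single-concentration screen at 10 μM, with DMSO 0.1 v/v % and amiodarone 10 μM as controls. Read-out is LipidTOX Red phospholipid staining, which tolerates aldehyde fixation, in Vero-E6 cells.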

Row | Structure (SMILES) | result_ITMP [%]
1 | CO[C@H](C(=O)[C@@H](O)[C@@H](C)O)[C@@H]1Cc2cc3cc(O[C@H]4C[C@@H](O[C@H]5C[C@@H](O)[C@H](O)[C@@H](C)O5)[C@@H](O)[C@@H](C)O4)c(C)c(O)c3c(O)c2C(=O)[C@H]1O[C@H]1C[C@@H](O[C@H]2C[C@@H](O[C@H]3C[C@](C)(O)[C@H](O)[C@@H](C)O3)[C@H](O)[C@@H](C)O2)[C@H](O)[C@@H](C)O1 | 29.4
2 | O=[N+]([O-])c1cc([N+](=O)[O-])c(/C=C/c2ccc(Cl)c(Cl)c2)cc1/C=C/c1ccc(Cl)c(Cl)c1 | -7.51
3 | O=c1cc(N2CCOCC2)oc2c(-c3cccc4c3sc3ccccc34)cccc12 | 1.64
4 | Nc1ncc2c(n1)CC(c1ccco1)CC2=O (stereo not shown) | 3.12
5 | Oc1ccc2c3c1O[C@H]1c4[nH]c5c(c4C[C@@]4(O)[C@@H](C2)N(CC2CC2)CC[C@]314)C[C@@]1(O)[C@H]2Cc3ccc(O)c4c3[C@@]1(CCN2CC1CC1)[C@H]5O4 | 2.52
6 | CN(C)CCCN1c2ccccc2Sc2ccccc21 | 37.7
7 | Cc1cc(C(C)(C)C)c(O)c(C)c1CC1=NCCN1 | -4.13
8 | O=C(OCCO)c1ccccc1O | 2.99
9 | CCC(=O)O[C@@H]1CC(=O)O[C@H](C)C/C=C/C=C/[C@H](OC(C)=O)[C@H](C)C[C@H](CC=O)[C@H](O[C@@H]2O[C@H](C)[C@@H](O[C@H]3C[C@@](C)(OC(C)=O)[C@@H](OC(=O)CC)[C@H](C)O3)[C@H](N(C)C)[C@H]2O)[C@H]1OC | 7.16
10 | NS(=O)(=O)c1cc(C(=O)O)cc(N2CCCC2)c1Oc1ccccc1 | -10.1
11 | CC(=O)O[C@]1(C(C)=O)CC[C@H]2[C@@H]3C[C@H](C)C4=CC(=O)C=C[C@]4(C)[C@@]3(F)[C@@H](O)C[C@@]21C | -7.92
12 | CCCC(CCC)C(=O)NCC(N)=O | -5.65
13 | O=C(O)COc1ccc(OCCNC[C@H](O)COc2ccccc2)cc1 | -6.38
14 | CC(=O)NC1=NN(C(C)=O)C(C)(c2ccccc2)S1 (stereo not shown) | 18.6
15 | CC(=O)OC[C@H]1O[C@@](COC(C)=O)(O[C@H]2O[C@H](COC(C)=O)[C@@H](OC(C)=O)[C@H](OC(C)=O)[C@H]2OC(C)=O)[C@@H](OC(C)=O)[C@@H]1OC(C)=O | 4.65
16 | Cc1ccc(-c2csc(NC(=O)c3ccccc3)n2)c(C)c1 | 2.34
17 | Cc1onc(-c2ccccc2)c1-c1ccc(S(N)(=O)=O)cc1 | -5.1
18 | CCN(CC)C(=S)[S-] | -6.15
19 | CC1=C(CC(=O)O)c2cc(F)ccc2/C1=C\c1ccc(S(C)=O)cc1 (stereo not shown) | -2.21
20 | O=C1c2cccnc2OC[C@@H]2CCCN12 | -2.01

Row | Structure (SMILES) | result_ITMP [%]
21 | CCCc1cc(=O)[nH]c(=S)[nH]1 | -3.09
22 | CCCCCCCC[N+](C)(C)Cc1ccccc1 | -1.9
23 | C[N+]1(CCCCC[N+]2(C)CCCC2)CCCC1 | 1.88
24 | C[C@H](NC(=O)C(C)(C)Oc1ccc(C(F)(F)F)cn1)[C@@H](Cc1ccc(Cl)cc1)c1cccc(C#N)c1 | 1.28
25 | O=C(Nc1ccccc1)c1cc([N+](=O)[O-])ccc1Cl | -4.43
26 | O=C(O)[C@H](Cc1c[nH]c2ccccc12)N1C(=O)c2ccccc2C1=O | -5.26
27 | C=C1C(=O)O[C@@H]2/C=C(\C)CC/C=C(\C)CC[C@@H]12 | -1.57
28 | C[C@H](CCC(=O)O)[C@H]1CC[C@H]2[C@@H]3[C@H](O)C[C@@H]4C[C@H](O)CC[C@]4(C)[C@H]3C[C@H](O)[C@]12C | 0.2
29 | c1ccc2c(Cc3c[nH]c4ccccc34)c[nH]c2c1 | -4.8
30 | Cc1sc(N)c(C(=O)c2cccc(C(F)(F)F)c2)c1C | -2.1
31 | COc1ccc(OC)c2c(=S)c3ccccc3[nH]c12 | -1.78
32 | COCc1c(-c2ccc(NC(=O)Nc3cc(C(F)(F)F)ccc3F)c(F)c2)c2c(N)ncnn2c1CN1CCOCC1 | 0.1
33 | CCC(=O)N1CCN(c2ccc(-n3c(=O)ccc4cnc5ccc(-c6cnc7ccccc7c6)cc5c43)cc2C(F)(F)F)CC1 | -2.63
34 | CO/N=C(\C(=O)N[C@@H]1C(=O)N2C(C(=O)OCOC(=O)C(C)(C)C)=C(/C=C\c3scnc3C)CS[C@H]12)c1csc(N)n1 | 6.57
35 | Cn1cnc(-c2cc3nccc(Oc4ccc(NC(=S)NC(=O)Cc5ccccc5)cc4F)c3s2)c1 | 0.11
36 | O[C@@H](COc1cccc2ncccc12)CN1CCN([C@@H]2c3ccccc3[C@@H]3[C@H](c4ccccc42)C3(F)F)CC1 | 25.5
37 | O=c1[nH]c(=O)c2[nH]c(=O)[nH]c2[nH]1 | -1.7
38 | COc1ccccc1C(=O)Nc1cc2c(cc1N1CCCC1)n(C)c(=O)n2C | -1.52
39 | Nc1nonc1/C(=N\c1ccc(F)c(Cl)c1)NO | 0.83
40 | Cc1cc(-c2cc(OC(=O)c3ccccc3)ccc2Cl)cc2nnc(Nc3ccc(OCCN4CCCC4)cc3)nc12 | -1.87
